{"source": "the supplement of paper PMC8728848", "binders": {"B1": {"name": "ACA (Amaranthus caudatus) (protein)", "chain": "MAGLPVIMCLKSNNNQKYLRYQSDNIQQYGLLQFSADKILDPLAQFEVEPSKTYDGLVHIKSRYTNKYLVRWSPNHYWITASANEPDENKSNWACTLFKPLYVEEGNMKKVRLLHVQLGHYTQNYTVGGSFVSYLFAESSQIDTGSKDVFHVIDWKSIFQFPKRYVTFKGNNGKYLGVITINQLPCLQFGYDNLNDPKVAHEMFVTSNGTICIKSTYMNKFWRLSTDDWILVDGNDPRETNEAAALFRSDVHDFNVISLLNMQKTWFIKRFTSGKPGFINCMNAATQNVDETAILEIIELGSNN"}}, "experiment_in_all_cases": "glycan array binding signal (z-score within array); higher = stronger binding", "conditions_in_all_cases": "glycan notation: IUPAC condensed, linker removed", "key": {"[1]": {"target": "Gal(b1-3)GlcNAc(b1-3)Gal(b1-4)GlcNAc(b1-3)Gal(b1-4)GlcNAc(b1-2)[Gal(b1-3)GlcNAc(b1-3)Gal(b1-4)GlcNAc(b1-3)Gal(b1-4)GlcNAc(b1-6)]Man(a1-6)[Gal(b1-3)GlcNAc(b1-3)Gal(b1-4)GlcNAc(b1-3)Gal(b1-4)GlcNAc(b1-2)Man(a1-3)]Man(b1-4)GlcNAc(b1-4)[Fuc(a1-6)]GlcNAc", "in_short": "(§1)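 Arrays were curated from the Consortium for Functional Glycomics database, 3228 in total, and kept only where the protein sequence was available. Binding is expressed as a within-array Z-score. This score was averaged across arrays of the same protein sequence at different concentrations or buffers and across linkers, and negative values can be read as non-binding.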"}, "[2]": {"target": "Gal(b1-3)GlcNAc(b1-3)Gal(b1-4)GlcNAc(b1-6)[Gal(b1-3)GlcNAc(b1-3)]Gal(b1-4)Glc", "in_short": "as §1"}, "[3]": {"target": "Gal(b1-3)GlcNAc(b1-3)Gal(b1-4)[Fuc(a1-3)]GlcNAc", "in_short": "as §1"}, "[4]": {"target": "Gal(b1-3)GlcNAc(b1-3)Gal(b1-4)[Fuc(a1-3)]GlcNAc(b1-6)[Gal(b1-3)GlcNAc(b1-3)]Gal(b1-4)Glc", "in_short": "as §1"}, "[5]": {"target": "Gal(b1-3)GlcNAc(b1-3)GalNAc", "in_short": "as §1"}, "[6]": {"target": "Gal(b1-3)GlcNAc(b1-6)Gal(b1-4)GlcNAc", "in_short": "as §1"}, "[7]": {"target": "Gal(b1-3)GlcNAc(b1-6)GalNAc", "in_short": "as §1"}, "[8]": {"target": "Gal(b1-3)GlcNAc(b1-6)[Gal(b1-3)]GalNAc", "in_short": "as §1"}, "Gal(b1-3)GlcNAc6S": {"target": "Gal(b1-3)GlcNAc6S", "in_short": "as §1"}, "[9]": {"target": "Gal(b1-3)[Fuc(a1-4)]GlcNAc", "in_short": "as §1"}, "[10]": {"target": "Gal(b1-3)[Fuc(a1-4)]GlcNAc(b1-2)Man", "in_short": "as §1"}, "[11]": {"target": "Gal(b1-3)[Fuc(a1-4)]GlcNAc(b1-2)Man(a1-3)[Gal(b1-3)[Fuc(a1-4)]GlcNAc(b1-2)Man(a1-6)]Man(b1-4)GlcNAc(b1-4)[Fuc(a1-6)]GlcNAc", "in_short": "as §1"}, "[12]": {"target": "Gal(b1-3)[Fuc(a1-4)]GlcNAc(b1-3)Gal(b1-3)[Fuc(a1-4)]GlcNAc", "in_short": "as §1"}, "[13]": {"target": "Gal(b1-3)[Fuc(a1-4)]GlcNAc(b1-3)Gal(b1-4)[Fuc(a1-3)]GlcNAc", "in_short": "as §1"}, "[14]": {"target": "Gal(b1-3)[Fuc(a1-4)]GlcNAc(b1-6)GalNAc", "in_short": "as §1"}, "[15]": {"target": "Gal(b1-3)[GlcNAc(b1-6)]GalNAc", "in_short": "as §1"}, "[16]": {"target": "Gal(b1-3)[Neu5Ac(a2-6)]GalNAc", "in_short": "as §1"}, "[17]": {"target": "Gal(b1-3)[Neu5Ac(a2-6)]GlcNAc(b1-4)Gal(b1-4)Glc", "in_short": "as §1"}, "[18]": {"target": "Gal(b1-3)[Neu5Ac(b2-6)]GalNAc", "in_short": "as §1"}, "Gal(b1-4)Gal": {"target": "Gal(b1-4)Gal", "in_short": "as §1"}, "[19]": {"target": "Gal(b1-4)GalNAc(a1-3)[Fuc(a1-2)]Gal(b1-4)GlcNAc", "in_short": "as §1"}, "[20]": {"target": "Gal(b1-4)GalNAc(b1-3)[Fuc(a1-2)]Gal(b1-4)GlcNAc", "in_short": "as §1"}, "Gal(b1-4)Glc": {"target": "Gal(b1-4)Glc", "in_short": "as §1"}, "Gal(b1-4)Glc6S": {"target": "Gal(b1-4)Glc6S", "in_short": "as §1"}, "Gal(b1-4)GlcNAc": {"target": "Gal(b1-4)GlcNAc", "in_short": "as §1"}, "[21]": {"target": "Gal(b1-4)GlcNAc(a1-6)Gal(b1-4)GlcNAc", "in_short": "as §1"}, "Gal(b1-4)GlcNAc(b1-2)Man": {"target": "Gal(b1-4)GlcNAc(b1-2)Man", "in_short": "as §1"}, "[22]": {"target": "Gal(b1-4)GlcNAc(b1-2)Man(a1-3)Man(b1-4)GlcNAc(b1-4)GlcNAc", "in_short": "as §1"}, "[23]": {"target": "Gal(b1-4)GlcNAc(b1-2)Man(a1-3)[Gal(b1-4)GlcNAc(b1-2)Man(a1-6)]Man(b1-4)GlcNAc(b1-4)GlcNAc", "in_short": "as §1"}, "[24]": {"target": "Gal(b1-4)GlcNAc(b1-2)Man(a1-3)[Gal(b1-4)GlcNAc(b1-2)Man(a1-6)]Man(b1-4)GlcNAc(b1-4)[Fuc(a1-6)]GlcNAc", "in_short": "as §1"}, "[25]": {"target": "Gal(b1-4)GlcNAc(b1-2)Man(a1-3)[Gal(b1-4)GlcNAc(b1-2)Man(a1-6)][Gal(b1-4)GlcNAc(b1-4)]Man(b1-4)GlcNAc(b1-4)[Fuc(a1-6)]GlcNAc", "in_short": "as §1"}, "[26]": {"target": "Gal(b1-4)GlcNAc(b1-2)Man(a1-3)[Gal(b1-4)GlcNAc(b1-2)Man(a1-6)][GlcNAc(b1-4)]Man(b1-4)GlcNAc(b1-4)[Fuc(a1-6)]GlcNAc", "in_short": "as §1"}, "[27]": {"target": "Gal(b1-4)GlcNAc(b1-2)Man(a1-3)[GlcNAc(b1-2)Man(a1-6)]Man(b1-4)GlcNAc(b1-4)GlcNAc", "in_short": "as §1"}, "[28]": {"target": "Gal(b1-4)GlcNAc(b1-2)Man(a1-3)[GlcNAc(b1-4)][Gal(b1-4)GlcNAc(b1-2)Man(a1-6)]Man(b1-4)GlcNAc(b1-4)GlcNAc", "in_short": "as §1"}, "[29]": {"target": "Gal(b1-4)GlcNAc(b1-2)Man(a1-3)[Man(a1-6)]Man(b1-4)GlcNAc(b1-4)GlcNAc", "in_short": "as §1"}, "[30]": {"target": "Gal(b1-4)GlcNAc(b1-2)Man(a1-6)Man(b1-4)GlcNAc(b1-4)GlcNAc", "in_short": "as §1"}, "[31]": {"target": "Gal(b1-4)GlcNAc(b1-2)Man(a1-6)[GlcNAc(b1-2)Man(a1-3)]Man(b1-4)GlcNAc(b1-4)GlcNAc", "in_short": "as §1"}, "[32]": {"target": "Gal(b1-4)GlcNAc(b1-2)Man(a1-6)[Man(a1-3)]Man(b1-4)GlcNAc(b1-4)GlcNAc", "in_short": "as §1"}}, "note": "This is one part of the list.", "data": [{"binder": "B1", "values": [{"measurement": "glycan array binding signal (z-score)", "setting": "[1]", "value": 0.633}, {"measurement": "glycan array binding signal (z-score)", "setting": "[2]", "value": -0.113}, {"measurement": "glycan array binding signal (z-score)", "setting": "[3]", "value": 0.124}, {"measurement": "glycan array binding signal (z-score)", "setting": "[4]", "value": -0.12}, {"measurement": "glycan array binding signal (z-score)", "setting": "[5]", "value": 0.052}, {"measurement": "glycan array binding signal (z-score)", "setting": "[6]", "value": -0.237}, {"measurement": "glycan array binding signal (z-score)", "setting": "[7]", "value": -0.497}, {"measurement": "glycan array binding signal (z-score)", "setting": "[8]", "value": -0.617}, {"measurement": "glycan array binding signal (z-score)", "setting": "Gal(b1-3)GlcNAc6S", "value": -0.01}, {"measurement": "glycan array binding signal (z-score)", "setting": "[9]", "value": -0.179}, {"measurement": "glycan array binding signal (z-score)", "setting": "[10]", "value": 0.403}, {"measurement": "glycan array binding signal (z-score)", "setting": "[11]", "value": 0.988}, {"measurement": "glycan array binding signal (z-score)", "setting": "[12]", "value": -0.545}, {"measurement": "glycan array binding signal (z-score)", "setting": "[13]", "value": -0.36}, {"measurement": "glycan array binding signal (z-score)", "setting": "[14]", "value": 0.358}, {"measurement": "glycan array binding signal (z-score)", "setting": "[15]", "value": -0.435}, {"measurement": "glycan array binding signal (z-score)", "setting": "[16]", "value": -0.195}, {"measurement": "glycan array binding signal (z-score)", "setting": "[17]", "value": -0.457}, {"measurement": "glycan array binding signal (z-score)", "setting": "[18]", "value": -0.173}, {"measurement": "glycan array binding signal (z-score)", "setting": "Gal(b1-4)Gal", "value": -0.685}, {"measurement": "glycan array binding signal (z-score)", "setting": "[19]", "value": -0.471}, {"measurement": "glycan array binding signal (z-score)", "setting": "[20]", "value": -0.595}, {"measurement": "glycan array binding signal (z-score)", "setting": "Gal(b1-4)Glc", "value": -0.035}, {"measurement": "glycan array binding signal (z-score)", "setting": "Gal(b1-4)Glc6S", "value": -0.011}, {"measurement": "glycan array binding signal (z-score)", "setting": "Gal(b1-4)GlcNAc", "value": -0.223}, {"measurement": "glycan array binding signal (z-score)", "setting": "[21]", "value": -0.009}, {"measurement": "glycan array binding signal (z-score)", "setting": "Gal(b1-4)GlcNAc(b1-2)Man", "value": -0.376}, {"measurement": "glycan array binding signal (z-score)", "setting": "[22]", "value": 0.07}, {"measurement": "glycan array binding signal (z-score)", "setting": "[23]", "value": -0.312}, {"measurement": "glycan array binding signal (z-score)", "setting": "[24]", "value": 0.193}, {"measurement": "glycan array binding signal (z-score)", "setting": "[25]", "value": -0.345}, {"measurement": "glycan array binding signal (z-score)", "setting": "[26]", "value": 0.287}, {"measurement": "glycan array binding signal (z-score)", "setting": "[27]", "value": -0.094}, {"measurement": "glycan array binding signal (z-score)", "setting": "[28]", "value": -0.397}, {"measurement": "glycan array binding signal (z-score)", "setting": "[29]", "value": -0.339}, {"measurement": "glycan array binding signal (z-score)", "setting": "[30]", "value": -0.378}, {"measurement": "glycan array binding signal (z-score)", "setting": "[31]", "value": -0.388}, {"measurement": "glycan array binding signal (z-score)", "setting": "[32]", "value": -0.58}]}]}
